Results taken from PubChem BioAssay AID485281 (National Center for Advancing Translational Sciences (NCATS), 2010).
Among all 350,000 compounds or so, about 260 (0.074%) were called active. Inconclusive results, whose numbers are uncertain, are shown with a selection of clear calls. The call rests on the fitted dose curve; in most records, active means well fitted inhibition curve with a large enough effect; inconclusive means small, poorly fitted or top-dose-only effect; inactive means no such curve, though single readings can be large or run the other way. Potencies of inconclusive entries are doubtful fits and often do not repeat.

Target: Ferritin light chain (Equus caballus) (UniProt P02791)
Sequence of UniProt P02791 (P02791 whole entry, looked up): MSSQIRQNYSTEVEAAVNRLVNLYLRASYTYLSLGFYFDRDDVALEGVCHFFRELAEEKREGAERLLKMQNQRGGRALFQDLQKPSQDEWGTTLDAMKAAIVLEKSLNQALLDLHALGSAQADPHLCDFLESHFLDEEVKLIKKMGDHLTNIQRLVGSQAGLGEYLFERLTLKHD
Experiment: qHTS Assay for Identification of Novel General Anesthetics; further: nearly all actives have a fitted effect of over 20% in size
Conditions: apoferritin/1-aminoanthracene competitive binding, fluorescence; activity change, negative = displacement: at 77.5 µM (top of the series)
Outline: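 Horse-spleen apoferritin (10 uM) was mixed with 50% saturated 1-aminoanthracene in PBS, exposed to compounds for 10 min at room temperature, and read for fluorescence (ex 380 nm, em 535 nm). Competitive displacement was fitted with a four-parameter Hill equation.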
On the % scale 0 is the no-effect control and ±100 the full control effect; potency means the concentration at half of the fitted maximal effect; tags describe the fitted curve by direction and shape.

SMILES	Potency	activity change, negative = displacement
C/C=C(/C)C(=O)O[C@@H]1[C@H](OC(C)=O)c2c(ccc3ccc(=O)oc23)OC1(C)C	inconclusive: 39.8 µM [inhibitor, single point]	
Cc1nn(CC(=O)c2ccccc2Cl)c(C)c1[N+](=O)[O-]	inconclusive: 31.6 µM [inhibitor, partial curve]	
C(=N\Nc1ccc2nncn2n1)/c1ccco1		inactive: 2.8%
CCOc1ccc2nc(N/C(N)=N/C(=S)Nc3ccc(C)c(C)c3)nc(C)c2c1		inactive: -10.2%
C=CCn1c(COc2ccccc2)nnc1SCC(=O)N/N=C/c1ccc(C)cc1	inconclusive: 31.6 µM [inhibitor, partial curve]	
Clc1ccc(CNc2ccc(CNc3ncn[nH]3)cc2)c(Cl)c1	inconclusive: 12.6 µM [inhibitor, partial curve]	
Clc1cccc(NCc2ccccc2)n1	inconclusive: 50.1 µM [inhibitor, single point]	
Cc1ccc(NC2CCCN(C(=O)c3ccccn3)C2)cc1C (stereo not given)	inconclusive: 35.5 µM [inhibitor, partial curve]	
S=C(NCc1ccccc1)NCc1cccc(CNC(=S)NCc2ccccc2)c1		inactive: 39.1%
COc1ccc(C(=O)NCC(=O)OCC(=O)c2ccc(Cl)cc2)cc1OC	inconclusive: 22.4 µM [inhibitor, partial curve]	
O=C1c2ccsc2SCCN1Cc1c(Cl)cccc1Cl	inconclusive: 3.16 µM [inhibitor, partial curve]	
COC(=O)c1cc(NS(=O)(=O)c2ccc(N3CCCCCC3)c([N+](=O)[O-])c2)cc(C(=O)OC)c1	inconclusive: 10 µM [inhibitor, partial curve]	
Cc1cc(Nc2ccccc2)c2c([N+](=O)[O-])ccc(C)c2n1	inconclusive: 14.1 µM [inhibitor, partial curve]	
S=C(Nc1ccc(Cl)cc1Cl)Nc1ccccc1Oc1ccccc1		inactive: -13.4%
C=CCn1c(SCC(=O)Nc2cc(C)c(Cl)cc2OC)nnc1-c1ccco1	inconclusive: 35.5 µM [inhibitor, partial curve]	
CCOC(=O)C1=C(O)C(=O)N(c2ccccc2)C1c1cccc([N+](=O)[O-])c1 (stereo not given)		inactive: -7.16%
CCCC(C(=O)Nc1nccs1)c1ccccc1 (stereo not given)	inconclusive: 39.8 µM [inhibitor, single point]	
COc1ccccc1Oc1ccc(-c2cnc3ccccc3n2)cc1[N+](=O)[O-]	inconclusive: 28.2 µM [inhibitor, partial curve]	
CC(C)(C)c1ccc(OCC(O)CS(=O)(=O)c2ccccn2)cc1 (stereo not given)	inconclusive: 31.6 µM [inhibitor, partial curve]	
C=CCN(CC=C)C(=O)COC(=O)c1ccc(Sc2ncn[nH]2)c([N+](=O)[O-])c1	inconclusive: 35.5 µM [inhibitor, partial curve]	
CCCc1[nH]nc2c1C(/C(C)=C/c1ccccc1)C(C#N)=C(N)O2 (stereo not given)	inconclusive: 35.5 µM [inhibitor, partial curve]	
Cc1ccc(Cn2nc3c(cc2=O)CCc2ccccc2-3)cc1	inconclusive: 39.8 µM [inhibitor, single point]	

SMILES	Potency	activity change, negative = displacement
O=C(CCC(=O)OCC(=O)c1ccc(F)cc1)NC1CCCCC1	inconclusive: 31.6 µM [inhibitor, single point]	
COc1ccc(CNC(=O)c2ccc(S(=O)(=O)N3CCCC3)cc2)cc1OC	inconclusive: 25.1 µM [inhibitor, partial curve]	
CCOC(=O)c1c(NC(=O)CC2SC(=NC)N(C)C2=O)sc(C)c1C (stereo not given)	inconclusive: 50.1 µM [inhibitor, single point]	
CCOC(=O)c1oc2ccc(Br)cc2c1CSc1nnc(C)s1	inconclusive: 31.6 µM [inhibitor, partial curve]	
CSc1ccc(Cl)c(C(=O)OCC(=O)Nc2ccccc2OC(F)F)c1		inactive: -13.6%
Cc1ccc(NC(=O)CC(=O)c2ccc([N+](=O)[O-])cc2)cc1S(=O)(=O)Nc1cccc(Cl)c1	inconclusive: 20 µM [inhibitor, partial curve]	
O=C(COc1ccccc1)OCc1cc(=O)n2nc(C3CC3)sc2n1	inconclusive: 22.4 µM [inhibitor, partial curve]	
Cc1ccc(-n2c(SCc3ccc(C#N)cc3)nnc2-c2ccccn2)cc1	inconclusive: 28.2 µM [inhibitor, partial curve]	
Cc1cccc(C(=O)O/N=C/c2ccc(Br)cc2)c1	inconclusive: 22.4 µM [inhibitor, partial curve]	
O=C(NC1CCCCCCC1)c1cc([N+](=O)[O-])ccc1Cl	inconclusive: 28.2 µM [inhibitor, partial curve]	
CC1CCCN(CCOc2cccc(Oc3ccccc3)c2)C1 (stereo not given)	inconclusive: 31.6 µM [inhibitor, single point]	
Cc1cc(C)cc(NC(=S)Nc2ccc(Cl)c(Cl)c2)c1	inconclusive: 25.1 µM [inhibitor, partial curve]	
O=C(CN1C(=O)NC2(CCCCC2)C1=O)NCc1ccc2c(c1)OCO2	inconclusive: 31.6 µM [inhibitor, single point]	
Cn1nnc2cc(C(=O)Nc3ccc(Cl)cc3)ccc21		inactive: -5.03%
O=C(/C=C/c1cccc(C(F)(F)F)c1)Nc1cccc(C(F)(F)F)c1	inconclusive: 20 µM [inhibitor, partial curve]	
Cn1c(-c2ccc3c(c2)OCO3)cnc1NCc1cccc(Cl)c1	inconclusive: 39.8 µM [inhibitor, partial curve]	
O=C(Nc1cccnc1)c1ccc2nc(-c3ccccc3)c(-c3ccccc3)nc2c1	inconclusive: 25.1 µM [inhibitor, partial curve]	
CCOC(=O)N1CCN(C(=O)c2cc(COc3ccc(OC)cc3Cl)on2)CC1	inconclusive: 25.1 µM [inhibitor, single point]	
CSC1=N/C(=C\c2ccc(C)o2)C(=O)S1	inconclusive: 56.2 µM [inhibitor, single point]	
CCN1C(=O)/C(=C2/C=Cc3ccccc3N2CC)SC1=S	inconclusive: 20 µM [inhibitor, partial curve]	
CCOC(=O)N1CCN(C2=C(NS(=O)(=O)c3ccc(NC(C)=O)cc3)C(=O)c3ccccc3C2=O)CC1	inconclusive: 39.8 µM [inhibitor, single point]	
O=C(CN1C(=O)c2ccccc2C1=O)Nc1ccccc1F	inconclusive: 44.7 µM [inhibitor, single point]	

SMILES	Potency	activity change, negative = displacement
COc1ccc(N2CCN(C(c3ccccc3)c3sc4nc(-c5ccco5)nn4c3O)CC2)cc1 (stereo not given)	inconclusive: 1 µM [inhibitor, full curve]	
CC(c1ccccc1F)n1cc(C(=O)NCCc2ccco2)nn1 (stereo not given)	inconclusive: 22.4 µM [inhibitor, partial curve]	
Cn1ccnc1SCC(=O)c1cccc(C(F)(F)F)c1	inconclusive: 14.1 µM [inhibitor, partial curve]	
CCCN(CCC)C(=O)Cn1c(=O)n(-c2ccc(CC)cc2)c(=O)c2ccc(C(=O)NCCc3ccccc3)cc21	inconclusive: 3.98 µM [inhibitor, full curve]	
Cc1ccc(-n2cc(C(=O)Oc3cccc(C)c3)c3ccccc3c2=O)cc1	inconclusive: 3.55 µM [inhibitor, full curve, poor fit]	
CCCn1c(=N)n(CC(=O)c2cccs2)c2ccccc21		inactive: -4.14%
N#C/C(=N\Nc1ccc(Br)cc1)C(=N)N1CCOCC1	inconclusive: 25.1 µM [inhibitor, partial curve]	
Cc1cccc(CC(=O)NCC2CCCCC2)c1	inconclusive: 25.1 µM [inhibitor, partial curve]	
CCOc1ccc(NC(=O)CS(=O)CC(=O)NC2CCCc3ccccc32)cc1 (stereo not given)	inconclusive: 14.1 µM [inhibitor, partial curve]	
Cc1ccc(S(=O)(=O)c2nc(S(=O)(=O)c3ccc(C)cc3)c(N3CCN(CCO)CC3)s2)cc1	inconclusive: 35.5 µM [inhibitor, partial curve]	
O=S(=O)(c1ccc2ccccc2c1)N1CCCOC1	inconclusive: 15.8 µM [inhibitor, partial curve]	
CC(C)(C)c1ccc(-c2ncccc2O)cc1	inconclusive: 20 µM [inhibitor, partial curve]	
Fc1ccc(CNC(=S)NCc2cccc(Cl)c2)cc1	inconclusive: 15.8 µM [inhibitor, partial curve]	
CCN(CCO)Cc1csc2ccc(Br)cc12	inconclusive: 31.6 µM [inhibitor, partial curve]	
COc1ccc(Br)cc1/C=N/NC(=O)CNC(=O)/C=C/c1ccccc1	inconclusive: 6.31 µM [inhibitor, partial curve]	
COc1cc(SC)ccc1C(=O)N1CCCc2ccccc21	inconclusive: 22.4 µM [inhibitor, partial curve]	
CCOc1ccc(NC(=O)c2c(NC(=O)CNCCN3CCOCC3)sc3c2CCC3)cc1	inconclusive: 39.8 µM [inhibitor, single point]	
Cc1ccc(NC(=O)c2cccc(N3C(=O)C4C5C=CC(C5)C4C3=O)c2)cc1C (stereo not given)	inconclusive: 11.2 µM [inhibitor, partial curve]	
O=C(Nc1nc(-c2ccncc2)cs1)C1c2ccccc2Oc2ccccc21		inactive: 0.258%
CC(C)(C)NC(=O)C(c1ccc(O)cc1)N(Cc1ccco1)C(=O)CCC(=O)Nc1ccccn1 (stereo not given)		inactive: -11.6%
c1ccc(-c2ccnc3nc(N4CCN(c5ccccc5)CC4)nn23)cc1	inconclusive: 28.2 µM [inhibitor, single point]	
